Source: the antibiotic and cytotoxicity screens of Wong et al. (2023)
The list shows a part of the results.

system: HSkMC (human skeletal muscle cells); assay: cytotoxicity call (relative viability < 0.9); conditions: 10 µM

SMILES	cytotoxicity call
CO[C@@H]1CN(C)C(=O)c2ccc(NC(=O)Nc3cccc(F)c3)cc2OC[C@H](C)N(C(=O)Nc2c(C)noc2C)C[C@H]1C	inactive
Nc1ccc(OCc2ccccc2)cc1	inactive
C[C@@H]1CCCCO[C@H](CN(C)C(=O)CCC(F)(F)F)[C@H](C)CN([C@@H](C)CO)C(=O)c2cc(NC(=O)NC3CCCCC3)ccc2O1	inactive
CC(C)NC(=O)Nc1ccc2c(c1)C(=O)N([C@H](C)CO)C[C@@H](C)[C@H](CN(C)Cc1ccc(C(F)(F)F)cc1)OCCCC[C@@H](C)O2	inactive
Cc1noc(C)c1NC(=O)N[C@H]1C=C[C@@H](CC(=O)NCCCN(C)C)O[C@@H]1CO	inactive
C[C@@H]1CN([C@@H](C)CO)S(=O)(=O)c2ccc(C#Cc3ccccc3)cc2O[C@@H]1CN(C)C(=O)CN(C)C	inactive
COc1ccc(S(=O)(=O)Nc2ccc3c(c2)C(=O)N([C@H](C)CO)C[C@@H](C)[C@H](CN(C)S(=O)(=O)c2ccc(C)cc2)O3)cc1	inactive
C[C@@H]1CCCCO[C@@H](CN(C)Cc2ccc(C(=O)O)cc2)[C@H](C)CN([C@@H](C)CO)C(=O)c2cc(NS(=O)(=O)c3ccc(Cl)cc3)ccc2O1	inactive
C[C@H](CO)N1C[C@H](C)[C@@H](CN(C)C(=O)NC2CCCCC2)OCCCC[C@H](C)Oc2ccc(NC(=O)Nc3ccc(C(F)(F)F)cc3)cc2C1=O	inactive
O=C(C[C@@H]1CC[C@H]2[C@@H](COC[C@H](O)CN2S(=O)(=O)c2cccc(F)c2)O1)NCc1ccncn1	inactive
O=C(Nc1ccc2c(c1)[C@@H]1C[C@@H](CC(=O)N3CCc4ccccc4C3)O[C@@H](CO)[C@@H]1O2)C1CCOCC1	inactive
Cc1nc2n(c(=O)c1CCN1CCC(c3noc4cc(F)ccc34)CC1)CCCC2O (stereo not given)	inactive
C[C@H]1CN([C@@H](C)CO)C(=O)Cc2cc(NS(=O)(=O)c3cn(C)cn3)ccc2O[C@H]1CN(C)CC1CCCCC1	inactive
O=C(C[C@@H]1C[C@H]2c3cc(NC(=O)c4cccnc4)ccc3O[C@H]2[C@H](CO)O1)NCc1cc(F)ccc1F	inactive
COc1ccc(S(=O)(=O)Nc2ccc3c(c2)C(=O)N([C@@H](C)CO)C[C@H](C)[C@@H](CN(C)C(=O)Nc2c(C)noc2C)OCCCC[C@H](C)O3)cc1	inactive
C[C@H](CO)N1C[C@H](C)[C@H](CN(C)C(=O)Nc2cccc3ccccc23)Oc2ncc(C#Cc3ccccc3)cc2C1=O	inactive
CN(C=O)CP(=O)(O)CN1CCCCC1	inactive
C[C@H]1CN([C@@H](C)CO)C(=O)c2cc(C#Cc3ccccc3F)cnc2O[C@@H]1CN(C)S(=O)(=O)c1ccccc1	inactive
Cc1ccc2c(Br)cc(Br)c(OC(=O)c3ccccc3)c2n1	inactive
C[C@@H]1CCCCO[C@@H](CN(C)Cc2ccc(C(F)(F)F)cc2)[C@@H](C)CN([C@@H](C)CO)C(=O)c2cc(NS(=O)(=O)c3cn(C)cn3)ccc2O1	inactive
COCC(=O)Nc1ccc2c(c1)C(=O)N(C)C[C@@H](OC)[C@H](C)CN(Cc1ccccc1F)[C@H](C)CO2	inactive
CC(=O)O[C@H](CC(=O)O)C[N+](C)(C)C	inactive
C[C@@H]1CN([C@H](C)CO)C(=O)c2cc(NS(=O)(=O)c3cn(C)cn3)ccc2O[C@@H](C)CCCCO[C@H]1CN(C)S(=O)(=O)c1ccccc1	inactive
COc1ccc(C=CC(=O)c2ccccc2)cc1	inactive
COc1cc(OC)cc(C(=O)OCCCNCCNCCCOC(=O)c2cc(OC)cc(OC)c2)c1	inactive
Cc1noc(C)c1S(=O)(=O)N(C)C[C@@H]1Oc2ccc(NS(=O)(=O)c3ccc(F)cc3)cc2C(=O)N([C@H](C)CO)C[C@@H]1C	inactive
C[C@@H]1CCCCO[C@H](CN(C)C(=O)NC2CCCCC2)[C@H](C)CN([C@@H](C)CO)C(=O)c2cc(NC(=O)c3ccncc3)ccc2O1	inactive
Cc1noc(C)c1NC(=O)Nc1ccc2c(c1)C(=O)N([C@@H](C)CO)C[C@@H](C)[C@@H](CN(C)Cc1ccc(Cl)c(Cl)c1)OCCCC[C@@H](C)O2	inactive
CC(C)NC(=O)N1Cc2cc(C(=O)NCC(F)(F)F)nc(-c3cccc(-c4cc5ccccc5o4)c3)c2[C@H]1CCO	inactive
C[C@@H]1CCCCO[C@H](CN(C)Cc2ccc(C(=O)Nc3ccccc3N)cc2)[C@@H](C)CN([C@H](C)CO)C(=O)c2cc(NS(=O)(=O)c3ccc(F)cc3)ccc2O1	inactive
